# Test results from PubChem BioAssay AID624296 (National Center for Advancing Translational Sciences (NCATS), 2012).
# The campaign covered roughly 350,000 compounds. About 9,900 (2.8%) were called active. Inconclusive means that the source gave no clear call. Such entries were picked first, then a sample of the others. Calls come from the whole dose curve; as a rule, active = well fitted activation curve with a large enough effect; inconclusive = small, poorly fitted or top-dose-only effect; inactive = no such curve, though single readings can be large or run the other way. Potencies of inconclusive entries are left out as doubtful fits.
# Experiment: A quantitative high throughput screen for small molecules that induce DNA re-replication in MCF 10a normal breast cells. For activity, positive = re-replication: % of control where 0% means no effect. Note: nearly all actives have a fitted effect of over 50% in size.
# Conditions: MCF 10A DNA re-replication, Hoechst nuclear intensity, 48 h; activity, positive = re-replication: at 46.1 µM (top of the series)
# Potency is the fitted concentration of half-maximal effect; tags give direction and shape of the fitted curve.
Compound,Potency,"activity, positive = re-replication"
CCOc1ccc2c(c1)-c1c(ssc1=S)C(C)(C)N2C,"inconclusive [activator, partial curve, poor fit]",
O=C(N/N=C/c1cccs1)c1cc(-c2ccncc2)nc2ccccc12,,inconclusive: 63.5% [activator]
CC(OC(=O)c1cc(O)c2ccccc2c1O)C(=O)Nc1ccc(C(N)=O)cc1 (stereo not given),"inconclusive [activator, single point]",
Cc1cc(C)c2cc(C#N)c(N3CCCN(C(=O)c4cnccn4)CC3)nc2c1,active: 20.6 µM,
CC(C)N(Cc1ccccc1)CC(O)COc1ccc(S(=O)(=O)N2CCOCC2)cc1Cl (stereo not given),,inactive: 7.19%
CCOC(=O)c1c(-c2ccc(C)o2)csc1NC(=S)NC(=O)c1cccs1,,inactive: 24.3%
Oc1cc2c(cc1O)[C@H]1c3ccc(O)c(O)c3OC[C@@]1(O)C2,,inactive: -14%
Fc1cccc(C2CC(c3cccc(Br)c3)Nc3nnnn32)c1 (stereo not given),"inconclusive [activator, single point]",
O=S(=O)(Nc1cccc2ccccc12)c1cccc2nonc12,,inactive: 14.7%
N#CC1=C(N)Oc2cc(N)ccc2C1c1ccc(F)cc1F (stereo not given),active: 20.6 µM,
Cc1ccccc1C(=O)Nc1ccccc1,,inactive: 3.1%
O=C(CSc1cccc[n+]1[O-])NC(=O)c1ccc(OC(F)F)cc1,,inactive: 6.47%
CC1=C(C(=O)OC(C)C)C(c2ccsc2)NC(=O)N1C (stereo not given),,inactive: 0.831%
COc1cc(S(=O)(=O)Nc2ccc(C)cc2)ccc1N=Cc1c(C)c(C#N)c(=O)n(C)c1O,"inconclusive [activator, partial curve, poor fit]",
CNC(=O)Nc1cc(C)nn1C,,inactive: -5.12%
CS(=O)(=O)c1nc(-c2ccc(F)cc2)cc(C(F)(F)F)n1,active: 3.66 µM,
CCCOc1ccc(N2C(=O)CC(SC(=NCC)Nc3cccc(F)c3)C2=O)cc1 (stereo not given),"inconclusive [activator, partial curve, poor fit]",
COc1ccc(Nc2ncnc3scc(-c4ccc(OC)cc4)c23)cc1,active: 5.17 µM,
CCOc1ccc(C(=O)OCC(=O)Nc2ccc3c(c2)OCCO3)cc1OC,"inconclusive [activator, single point]",
CCc1cc(C(=O)NNC(=O)CCl)sc1C,"inconclusive [activator, partial curve, poor fit]",
COc1cc(Br)c(C2CC(=O)Nc3cc(OC)c(OC)cc32)cc1OC (stereo not given),,inactive: -1.47%
COc1ccc(NC(=O)CN(c2ccc(OC)cc2)S(=O)(=O)c2ccc(OC)c(OC)c2)cc1,"inconclusive [activator, single point]",
COc1ccccc1-c1ccc(=O)n(CC(=O)NC2CCc3ccccc32)n1 (stereo not given),,inactive: 0.814%
CCCCn1c(C)csc1=Nc1cccnc1,,inactive: 18.3%

Compound,Potency,"activity, positive = re-replication"
COCCCNC(=O)c1c(N)n(-c2cccc(S(N)(=O)=O)c2)c2nc3ccccc3nc12,active: 18.4 µM,
COC(=O)c1ccccc1-c1ccc(C(c2c(C)[nH][nH]c2=O)c2c(C)[nH][nH]c2=O)o1,active: 14.1 µM,
CCOc1ccc(S(=O)(=O)N2CCN(C(=O)c3ccc(C)c(S(=O)(=O)N4CCOCC4)c3)CC2)cc1,,inactive: 9.16%
COc1ccc(NC(=S)N(CCc2c(C)[nH]c3ccc(C)cc23)Cc2cccnc2)cc1,,inactive: 0.211%
O=C(NCCN1CCOCC1)c1ccccc1N1C(=O)[C@@H]2Cc3c([nH]c4ccccc34)C(c3ccc(F)cc3)N2C1=O (stereo not given in full),,inactive: 29.6%
CCOc1cc(/C=N/NC(=O)CN2CCCCC2)ccc1OCc1ccc(Cl)cc1,"inconclusive [activator, partial curve, poor fit]",
COCCOc1cc(NC(=O)CS(=O)(=O)CC(=O)N(C)C)c(Cl)cc1Cl,,inactive: -3.45%
CCC1(C)Cc2c(sc3[nH]c(=S)n(Cc4ccccc4)c(=O)c23)CO1 (stereo not given),active: 13 µM,
O=C(Oc1ccccc1)c1cccc(COC(=O)c2cnccn2)c1,,inactive: 2.52%
Cc1ccc(S(=O)(=O)N2[C@@H](c3cccc(Cl)c3)C(C(=O)O)=CC[C@H]2c2ccc(Cl)c(Cl)c2)cc1,"inconclusive [activator, single point]",
Cc1sc(C(C2C(=O)CC(C)(C)CC2=O)C2C(=O)CC(C)(C)CC2=O)cc1[N+](=O)[O-],"inconclusive [activator, partial curve, poor fit]",
COc1ccc(NC(=O)CC2C(=O)N(c3cccc(OC)c3)C(=O)N2Cc2ccco2)cc1 (stereo not given),,inactive: -0.992%
COc1ccc(C(C(=O)NC2CCCC2)N(C(=O)c2snc(C(N)=O)c2N)c2cc(C)ccc2OC)cc1OC (stereo not given),"inconclusive [activator, partial curve, poor fit]",
CC1SC(c2ccc(F)cc2)N(CCc2ccccc2)C1=O (stereo not given),"inconclusive [activator, partial curve, poor fit]",
COc1ccc(NS(=O)(=O)c2cc(NC(=O)c3sccc3C)ccc2N2CCOCC2)cc1,"inconclusive [activator, partial curve]",
O=c1c2cc3c(nc2[nH]c(=S)n1-c1ccccc1)CCCC3,,inactive: 0.0482%
CC(C)c1nnc(NC(=O)CCC(=O)N2CCN(Cc3ccc(F)cc3)CC2)s1,,inactive: 2.41%
Cc1nc(N)c2c(Cc3cccc4ccccc34)nn(C(C)(C)C)c2n1,"inconclusive [activator, single point]",
COc1ccc(-n2c(Cc3cccn3C)nnc2SCC(=O)NCc2ccc(F)cc2)cc1,,inactive: 5.43%
COc1cc(C2NC(=O)C(C#N)=C(S)N2c2ccc(C)cc2)ccc1OC(C)C (stereo not given),"inconclusive [activator, single point]",
O=C(CNC(=O)c1[nH]cnc1C(=O)NC(c1ccccc1)c1ccccc1)OCc1ccccc1,"inconclusive [activator, single point]",
CC(=O)Nc1ccc(NC(=O)c2cc(-c3ccc(C)c(C)c3O)n[nH]2)cc1,"inconclusive [activator, partial curve, poor fit]",
O=C(CCCN1C(=O)c2ccccc2C1=O)N1CCOCC1,"inconclusive [activator, single point]",
CC(=O)Nc1ccc(NC(=O)C(=O)c2cn(CC(=O)N3CCCC3)c3ccccc23)cc1,,inactive: 9.49%

Compound,Potency,"activity, positive = re-replication"
CCOC(=O)CC(=O)CSc1nc2c(cc1C#N)CCCCC2,"inconclusive [activator, single point]",
CC1CCN(Cc2c(C(=O)N/N=C/c3cccc(Cl)c3)nnn2-c2nonc2N)CC1,"inconclusive [activator, single point]",
COc1ccc2c(c1OC)C(=O)OC2Nc1nc(-c2cc3cc(Br)ccc3oc2=O)cs1 (stereo not given),"inconclusive [activator, single point]",
CCOc1ncccc1C(=O)OCC(=O)NCCc1ccc(OC)cc1,"inconclusive [activator, full curve, poor fit]",
Cc1cc(C)cc(-n2c3nc4ccccc4nc3c3c(=O)n(Cc4ccco4)cnc32)c1,"inconclusive [activator, single point]",
O=C(CC1C(=O)NCCN1C(=O)Nc1ccc(C(F)(F)F)cc1)Nc1ccc(F)cc1 (stereo not given),"inconclusive [activator, partial curve, poor fit]",
C=CCc1c(C)nc(SC)nc1Nc1ccc(C(=O)O)cc1,"inconclusive [activator, partial curve, poor fit]",
Oc1cccc(NC(=S)Nc2ccc(SC(F)F)cc2)c1,,inactive: 15.4%
N#C/C(=C/c1ccc(-c2ccccc2)o1)c1nc(-c2cccs2)cs1,"inconclusive [activator, partial curve]",
CC1(C)C(=O)Nc2ccccc2N1C(=O)COC(=O)c1cc(S(=O)(=O)N2CCOCC2)ccc1F,"inconclusive [activator, partial curve, poor fit]",
CCCCn1c(=O)c(CCC(=O)OC(C)C(=O)Nc2cccc(Cl)c2Cl)nc2ccccc21 (stereo not given),"inconclusive [activator, single point]",
CCOC(=O)N1CCN(S(=O)(=O)c2ccc(C(=O)NNc3nc4c(C)cccc4s3)cc2)CC1,"inconclusive [activator, single point]",
COc1cc(C(=O)c2cocc2C(=O)c2ccc3c(c2)OCO3)cc(OC)c1OC,"inconclusive [activator, partial curve, poor fit]",
O=C(CN(Cc1cccs1)S(=O)(=O)c1ccc(S(=O)(=O)NC2CCCCC2)cc1)Nc1ccccc1,"inconclusive [activator, partial curve, poor fit]",
CCCC(=O)NC(c1ccco1)c1cc([N+](=O)[O-])c2cccnc2c1O (stereo not given),,inactive: 0.252%
CCOc1ccc2nc(NS(=O)(=O)c3ccc4c(c3)n(C)c(=O)n4C)sc2c1,"inconclusive [activator, single point]",
COc1ccc(C=CC(=O)c2c(OC)cc(OC)c(OC)c2O)cc1,"inconclusive [activator, single point]",
COc1ccc(NC(=O)C2CCCCN2S(=O)(=O)c2ccc(F)cc2)c(OC)c1 (stereo not given),,inactive: 7.19%
CCOc1ccc(C(=O)C(C)OC(=O)Cn2[nH]c(=O)c3ccccc3c2=O)cc1 (stereo not given),,inactive: 13.7%
COC(=O)CN1C(c2cccc(Cl)c2)=Nc2ccc(Cl)cc2C1c1ccccc1 (stereo not given),"inconclusive [activator, single point]",
N#Cc1cccc(NC(=O)CSc2nnc(C3CC3)n2C2CC2)c1,,inactive: -0.963%
O=C(CSc1nc2ccccc2c(=O)n1CCCN1CCOCC1)Nc1ccc(F)c(Cl)c1,"inconclusive [activator, single point]",
